# Results from PubChem BioAssay AID1347120 (National Center for Advancing Translational Sciences (NCATS), 2019).
# About 930 (0.24%) of roughly 390,000 compounds were called active. This list was built around the results that the source calls inconclusive (neither active nor inactive); the mix of calls is not that of the screen. Calls come from the whole dose curve; as a rule, active = well fitted activation curve with a large enough effect; inconclusive = small, poorly fitted or top-dose-only effect; inactive = no such curve, though single readings can be large or run the other way. Where the call is inconclusive, the potency comes from a doubtful curve fit.
# Assay: qHTS for Suppressors of FUS Proteinopathy: Primary screen using FUS-linked yeast assay; note: nearly all actives have a fitted effect of over 55% in size;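 for growth rescue (activation): plate controls were DMSO vehicle for no effect and reference control for full effect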
# Settings: S. cerevisiae FUS-expressing, OD600, 24 h; Potency: growth rescue; growth rescue (activation): at 76.6 µM (top of the series)
# Summary of the method: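 Cultures pregrown in 2.5% raffinose medium are shifted to minimal medium containing 2% galactose to express toxic FUS. Compounds are tested at several concentrations. After 24hr at 30C, growth is quantified at 600 nm absorbance.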
# Potency is the fitted concentration of half-maximal effect; tags give direction and shape of the fitted curve.
Compound,Potency,growth rescue (activation)
COc1ccc(-c2csc(C(C)(O)c3ccc(F)c(F)c3)n2)cc1 (configuration not stated),"inconclusive: 31.6 µM [activator, single point]",
CN(Cc1ccccc1)S(=O)(=O)c1ccc(F)c(C(=O)Nc2cc(Cl)cc(Cl)c2)c1,"inconclusive: 28.2 µM [activator, partial curve, poor fit]",
O=C(Nc1cccc([N+](=O)[O-])c1)NC1CCCCN(Cc2ccc(Cl)cc2)C1=O (configuration not stated),"inconclusive: 28.2 µM [activator, single point]",
CCn1cc(C(=O)NCCCOC(C)C)c(=O)c2cc(S(=O)(=O)N(C)C3CCCCC3)ccc21,"inconclusive: 7.94 µM [activator, partial curve, poor fit]",
O=C(NCc1ccc(Cl)cc1)c1cc2c(nc3sccn32)s1,,inconclusive: 83.3% [activator]
Cc1cc(-c2ccccc2)nc2cc(C(=O)Nc3cc(C(F)(F)F)ccc3Cl)nn12,,inactive: 1.26%
COc1ccc(CNC(=O)c2ccc3c(Cl)c4c(nc3c2)CCCC4)c(OC)c1,,inactive: -25.8%
C[C@@H]1CC=C[C@H]2[C@H]1C(=O)N(Cc1ccccc1)[C@H]2c1ccc(-c2ccc(N(C)C)cc2)cc1F,"inconclusive: 31.6 µM [activator, partial curve, poor fit]",
Cc1cccc(Nc2cc(C)nc3nc(Cc4ccc(Cl)cc4)nn23)c1,,inactive: 39.7%
Cc1ccc(Cn2cc3c(n2)-c2c(oc(C(=O)Nc4ccc(F)cc4F)c2C)CC3)cc1,,inactive: 5.9%
Cc1nc(SCC(=O)Nc2ccc(Cl)cc2C(F)(F)F)[nH]c(=O)c1Cc1ccccc1,,inactive: -3.48%
O=C(NCc1ccco1)c1ccc(Cn2c(=O)c3ccccc3n(Cc3cccc(F)c3)c2=O)cc1,"inconclusive: 8.91 µM [activator, partial curve]",
O=C1NCCOC(=O)[C@@H](Cc2ccc(F)cc2)C/C=C\C[C@@H]1CC(=O)N(CCO)Cc1ccccc1,"inconclusive: 25.1 µM [activator, partial curve, poor fit]",
O=C(Nc1ccc(F)cc1)c1ccc2snnc2c1,,inactive: 14.9%
CC(Oc1ccccc1)C(=O)Nc1ccc(C(=O)OCc2cc(=O)n3ccsc3n2)cc1 (configuration not stated),"inconclusive: 31.6 µM [activator, single point]",
COC(=O)c1ccc(CN(Cc2ccc(OC)c(OC)c2)S(=O)(=O)c2ccc(F)c(C(=O)Nc3cc(C)ccc3C)c2)cc1,"inconclusive: 15.8 µM [activator, partial curve, poor fit]",
Fc1ccccc1SCc1nnc(-c2ccccc2Br)o1,,inactive: 13.8%
CCc1cccc(CC)c1NC(=O)C1CN(S(=O)(=O)c2ccccc2)CCN1S(=O)(=O)c1ccccc1 (configuration not stated),"inconclusive: 7.94 µM [activator, full curve]",
Cc1nc(N2CCOCC2)c2c(C(=O)N3CCN(c4ccc(Cl)cc4)CC3)c(C)oc2n1,,inactive: 25.2%
Cc1ccc2c(c1)CCCN2C(=O)c1c(C)noc1C,,inactive: -2.98%
COc1ccc2c(c1)-c1nc(NC(=O)c3cccs3)sc1CC2,"inconclusive: 20 µM [activator, partial curve, poor fit]",

Compound,Potency,growth rescue (activation)
COc1ccc(C(=O)COC(=O)CNC(=O)c2ccc(C)s2)c(OC)c1,,inactive: 12.1%
O=C(CC1CC2CCC1C2)N1CCN(S(=O)(=O)c2ccccc2C(F)(F)F)CC1 (configuration not stated),"inconclusive: 22.4 µM [activator, single point]",
O=C(CSC1=Nc2ccccc2C2=NC(Cc3ccccc3)C(=O)N12)Nc1ccccc1 (configuration not stated),"inconclusive: 50.1 µM [activator, single point]",
O=C(COC(=O)C1CCN(c2ccc(C(F)(F)F)cn2)CC1)NCc1ccc(F)cc1,"inconclusive: 31.6 µM [activator, partial curve, poor fit]",
O=C(CCc1ccccc1)N[C@H]1[C@H](OC(=O)c2cccnc2)CCC[C@@]12C(=O)N(Cc1ccccc1)c1ccccc12,"inconclusive: 39.8 µM [activator, partial curve, poor fit]",
O=C(CCn1cnc2onc(-c3ccc(F)cc3)c2c1=O)N1CCN(c2ccccc2)CC1,"inconclusive: 0.891 µM [activator, full curve, poor fit]",
COc1ccc(CCNC(=O)c2cc(-c3ccco3)nc3ccccc23)cc1,"inconclusive: 25.1 µM [activator, partial curve, poor fit]",
CN(C)C(CNC(=O)c1cccc(S(=O)(=O)Nc2ccc(Br)cc2)c1)c1ccco1 (configuration not stated),"inconclusive: 7.08 µM [activator, partial curve, poor fit]",
CCNc1nc(NCC)nc(OCCOC(=O)COc2ccc(Cl)cc2Cl)n1,"inconclusive: 15.8 µM [activator, partial curve, poor fit]",
Cc1ccc(OCCSc2nc3ccccc3n2CC(=O)N2CCCCC2)c(C)c1,"inconclusive: 28.2 µM [activator, single point]",
CCN(CC)CC(=O)Nc1cc(N(C)C)nc2ccccc12,"inconclusive: 28.2 µM [activator, partial curve, poor fit]",
Cc1ccc(-c2csc(Cc3nc(-c4ccc5c(c4)CCC(=O)N5)cs3)n2)cc1,"inconclusive: 11.2 µM [activator, partial curve]",
CN(C(=O)c1ccc(NC(=O)Cc2ccc(NC(=O)C3CCN(C(=O)c4ccccc4)CC3)cc2)cc1)C1CCCC1,"inconclusive: 50.1 µM [activator, single point]",
O=C1N[C@@H](Cc2ccccc2)COC(=O)[C@H](Cc2ccc(F)cc2)C/C=C\C[C@@H]1CC(=O)N(CCO)Cc1ccccc1,"inconclusive: 28.2 µM [activator, single point]",
CCOC(=O)c1sc(Nc2nc(OC)cc(OC)n2)nc1C,"inconclusive: 50.1 µM [activator, single point]",
O=C(COC(=O)c1ccccc1C(=O)N1CCN(c2ccccc2)CC1)Nc1ccc(F)cc1,"inconclusive: 39.8 µM [activator, single point]",
COc1cccc(Cn2cc(-c3cccc(C(F)(F)F)c3)nn2)c1,"inconclusive: 44.7 µM [activator, single point]",
COc1ccc(CNC(=O)CCNS(=O)(=O)c2ccc3[nH]c(=O)oc3c2)cc1,,inactive: -14.5%
Cc1nc2c(Br)c(C)nn2c2c1CCC2,,inactive: -21.7%
O=C(CSc1ccc(Br)cc1)Nc1ccc(N2CCOCC2)cc1,,inactive: -9.37%
Cc1cc(C)c(NC(=O)Cn2nnc(-c3nc(-c4ccncc4)no3)c2N)c(C)c1,,inactive: -12.2%

Compound,Potency,growth rescue (activation)
CCOCC(=O)N1CCN(c2ccccc2OC)CC1,,inactive: -17.3%
COc1ccc2c(COC(=O)CNC(=O)C34CC5CC(CC(C5)C3)C4)cc(=O)oc2c1,"inconclusive: 15.8 µM [activator, partial curve, poor fit]",
O=C(CSc1nc2c([nH]c3ccccc32)c(=O)n1-c1cccc(C(F)(F)F)c1)N1CCCC1,,inactive: -0.094%
FC(F)(F)c1cccc(NC(=S)N(CCCN2CCCC2)Cc2cccn2Cc2ccc(Cl)cc2)c1,"inconclusive: 28.2 µM [activator, partial curve, poor fit]",
Cc1cccc(COC[C@H](Cc2ccccc2)N2CCN(C(=O)c3cccc(Cl)c3)CCC2=O)c1,"inconclusive: 14.1 µM [activator, partial curve, poor fit]",
O=C(c1cc(S(=O)(=O)N2CCN(c3ccccc3)CC2)ccc1Cl)N1CCCCCCC1,,inactive: 37.8%
COC(=O)c1ccc(C)c(NS(=O)(=O)c2ccc(OC)c(OC)c2)c1,"inconclusive: 3.98 µM [activator, single point]",
Cc1ccc(S(=O)(=O)Nc2ccc3c(c2)C(=O)N([C@H](C)CO)C[C@H](C)[C@H](CN(C)C(=O)Nc2cccc4ccccc24)OCCCC[C@@H](C)O3)cc1,active: 12.6 µM,
Cn1nc(C(C)(C)C)cc1NC(=O)C1(C)CCN1C(=O)CC(c1ccccc1)c1ccccc1 (configuration not stated),"inconclusive: 20 µM [activator, partial curve]",
CCc1cc2c(=O)c(-c3ccc4c(c3)OCCO4)c(C)oc2cc1OS(C)(=O)=O,"inconclusive: 25.1 µM [activator, partial curve]",
O=C(CSc1nnc(-c2ccccc2)n1-c1ccc(Cl)cc1)NN=Cc1c[nH]c2ccccc12,"inconclusive: 25.1 µM [activator, single point]",
C[C@@H](NC(=O)c1nc[nH]c1C(=O)N[C@@H](CCCCNC(=O)OC(C)(C)C)C(=O)OC(C)(C)C)c1ccccc1,active: 20 µM,
Cc1cccc(C(=O)Nc2sc3c(c2C(=O)O)CCC3)c1,,inactive: -19.8%
COc1ccccc1NC(=O)CN1C(=O)CSC(C)C1=O (configuration not stated),"inconclusive: 12.6 µM [activator, partial curve]",
O=C(O)c1ccc(NC(=O)c2ccc(Cl)cc2)c(NC(=O)c2ccc(Cl)cc2)c1,"inconclusive: 35.5 µM [activator, single point]",
O=C(COc1cccc(Cl)c1)N1CCC(c2nc3ccccc3s2)CC1,"inconclusive: 50.1 µM [activator, single point]",
Cc1ccc(CCNC(=O)c2ccc(Cn3c(=O)c4cccn4c4cccnc43)cc2)cc1,,inactive: -0.958%
Cc1ccc2[nH]c(C(=O)O)c(NC(=O)CN3CCN(c4cccc(C)c4C)CC3)c2c1,"inconclusive: 50.1 µM [activator, single point]",
Cc1cccc(C)c1NC(=O)C(C1CC1)n1c(-c2ccc(-c3ccccc3)cc2)nc2ccccc21 (configuration not stated),"inconclusive: 22.4 µM [activator, single point]",
Cc1ccc(-c2ccc(=O)n(Cc3cccc(Br)c3)n2)cc1,"inconclusive: 50.1 µM [activator, single point]",
